According to the antibiotic and cytotoxicity screens of Wong et al. (2023):
The list shows a part of the results.

How the values were obtained:
HSkMC = human skeletal muscle cells; assay: cytotoxicity call (relative viability < 0.9); conditions: 10 µM
S. aureus RN4220 = assay: growth inhibition call (relative growth <= 0.2); conditions: 50 µM

SMILES | cytotoxicity call (HSkMC) | growth inhibition call (S. aureus RN4220)
C[C@@H]1CN([C@@H](C)CO)C(=O)c2cc(NC(=O)Nc3ccc4c(c3)OCO4)ccc2O[C@@H]1CN(C)C(=O)Nc1ccc(C(F)(F)F)cc1 | inactive | inactive
COc1ccc(NC(=O)Nc2ccc3c(c2)CC(=O)N([C@@H](C)CO)C[C@@H](C)[C@H](CN(C)Cc2ccc(Cl)c(Cl)c2)O3)cc1 | inactive | inactive
CN1CCN(C2=Nc3cc(Cl)ccc3Nc3ccccc32)CC1 | inactive | inactive
C[C@@H]1CCCCO[C@@H](CN(C)C(=O)Nc2cccc3ccccc23)[C@@H](C)CN([C@H](C)CO)C(=O)c2cc(NC(=O)c3ccncc3)ccc2O1 | inactive | inactive
COc1ccc([Si](C)(C)[C@@H]2[C@@H](CC(=O)N3Cc4ccccc4C[C@H]3CO)O[C@]3(C(=O)N(Cc4ccc(N5C(=O)c6cccc7cccc5c67)cc4)c4ccccc43)[C@H]2C)cc1 | inactive | inactive
C[C@@H]1CN([C@@H](C)CO)S(=O)(=O)c2ccc(C#CC3CC3)cc2O[C@H]1CN(C)C(=O)Cc1ccncc1 | inactive | inactive
CN1C(=O)c2cc(NC(=O)C3CCCC3)ccc2OC[C@H]2O[C@H](CC(=O)NCCc3ccncc3)CC[C@@H]21 | inactive | inactive
O=C1CCOCCN1 | inactive | inactive
CS(=O)(=O)N1CC[C@]2(COCc3cnc(N4CCOCC4)nc32)C1 | inactive | inactive
CC(C)NC(=O)Nc1cccc2c1O[C@@H](CN(C)Cc1ccc3c(c1)OCO3)[C@@H](C)CN([C@@H](C)CO)C2=O | inactive | inactive
C[C@@H]1CCCCO[C@@H](CN(C)Cc2ccc3c(c2)OCO3)[C@@H](C)CN([C@H](C)CO)C(=O)c2cc(NC(=O)Nc3ccccc3)ccc2O1 | inactive | inactive
CO[C@@H]1CN(C)C(=O)c2ccc(NC(=O)NC(C)C)cc2OC[C@H](C)N(Cc2ccc(-c3ccccn3)cc2)C[C@@H]1C | inactive | inactive
C[C@H]1CN([C@@H](C)CO)C(=O)c2cc(NC(=O)Cc3ccccc3)ccc2O[C@H]1CN(C)Cc1ccc(Oc2ccccc2)cc1 | inactive | inactive
C[C@@H]1CN([C@H](C)CO)C(=O)Cc2cc(NC(=O)Nc3ccc(C(F)(F)F)cc3)ccc2O[C@H]1CN(C)C(=O)Nc1ccc(F)cc1 | inactive | inactive
CC(=O)N1CCc2n[nH]c(C(=O)N3CCOCC3)c2C1 | inactive | inactive
CO[C@@H]1CN(C)C(=O)c2cc(NC(=O)C3CC3)ccc2OC[C@@H](C)N(C(=O)Cc2ccccn2)C[C@H]1C | inactive | inactive
C[C@H]1CN([C@@H](C)CO)C(=O)Cc2cc(NC(=O)C3CCCCC3)ccc2O[C@@H]1CN(C)Cc1ccc(-c2ccccc2)cc1 | inactive | inactive
C[C@@H]1CCCCO[C@@H](CN(C)Cc2ccc(Cl)c(Cl)c2)[C@H](C)CN([C@H](C)CO)C(=O)c2cc(NC(=O)c3ccccc3)ccc2O1 | active | inactive
COCC(=O)N(C)C[C@H]1Oc2cc(C#CCC3CCCC3)ccc2S(=O)(=O)N([C@H](C)CO)C[C@H]1C | inactive | inactive
C[C@@H]1CN([C@@H](C)CO)S(=O)(=O)c2ccc(C#CC3CC3)cc2O[C@H]1CN(C)Cc1ccccc1F | inactive | inactive
COc1ccc2c3c(n(c2c1)C)[C@H](CO)N(C[C@]13CN(CC2CCOCC2)C1)C(=O)Cc1ccccn1 | inactive | inactive
C[C@@H]1CN([C@@H](C)CO)S(=O)(=O)c2ccc(Br)cc2O[C@@H]1CN(C)C(=O)c1ccncc1 | inactive | inactive
Cc1ccc(S(=O)(=O)N(C)C[C@@H]2OCCCC[C@@H](C)Oc3ccc(NC(=O)Nc4ccc(C(F)(F)F)cc4)cc3C(=O)N([C@@H](C)CO)C[C@@H]2C)cc1 | inactive | inactive
CC(C)(C)c1ccc(-c2nc3ccccc3s2)cc1 | inactive | inactive
Cc1noc(C)c1S(=O)(=O)N(C)C[C@H]1Oc2c(NC(=O)C3CCCCC3)cccc2C(=O)N([C@H](C)CO)C[C@H]1C | inactive | inactive
C[C@H]1CCCCO[C@H](CN(C)Cc2ccc(Cl)c(Cl)c2)[C@@H](C)CN([C@@H](C)CO)C(=O)c2cc(NC(=O)Nc3ccc(C(F)(F)F)cc3)ccc2O1 | inactive | inactive
C[C@@H]1CN([C@@H](C)CO)C(=O)Cc2cc(NC(=O)Nc3ccccc3)ccc2O[C@H]1CN(C)Cc1ccc(Cl)c(Cl)c1 | inactive | inactive
